According to the supplement of paper PMC12217912:
This is one part of the list. The full chains were built here from the parent and the listed change. Inactive controls read about 0.05.

B1: TEV protease; numbered along this chain (parent)
chain: MGESLFKGPRDYNPISSSICHLTNESDGHTTSLYGIGFGPFIITNKHLFRRNNGTLVVQSLHGVFKVKDTTTLQQHLVDGRDMIIIRMPKDFPPFPQKLKFREPQREERICLVTTNFQTKSMSSMVSDTSCTFPSGDGIFWKHWIQTKDGQCGSPLVSTRDGFIVGIHSASNFTNTNNYFTSVPKNFMELLTNQEAQQWVSGWRLNADSVLWGGHKVFMVKPEEPFQPVKEATQL

Variants of: B1
Test: raw area under fraction-flipped curve 0-4 h after induction (AUC4h, not background-subtracted), DNA-recorder readout of cleavage of the substrate (dimensionless); higher = more cleavage of the substrate by the protease variant
Conditions: temperature: 34 °C; time window: 0-4 h after rhamnose induction
Description: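 In vivo DNA recorder in E. coli TOP10(DE3) ΔrhaA at 34 °C. Each TEVp single-site mutant (parent TEVp 0) is paired with a single-site variant of the 7-mer TEVs (canonical ENLYFQ|S). The substrate sits between flexible linkers in a Bxb1-sfGFP-TEVs-SsrA fusion, so cleavage stabilises Bxb1 and speeds flipping of a recombination array, read by NGS. The value is the raw area under the fraction-flipped curve over 0-4 h after rhamnose induction (AUC4h), with ≥20 reads per time point. It is not background-subtracted; inactive controls average about 0.047.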
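Further: Bxb1 expression induced with 0.2% (w/v) L-rhamnose at OD600 near 0.5, cultures sampled hourly, flipped fraction per protease–substrate barcode pair counted by paired-end Illumina sequencing.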

| Variant | area with substrate ENAYFQS | area with substrate ENCYFQS | area with substrate ENDYFQS | area with substrate ENEYFQS | area with substrate ENFYFQS | area with substrate ENGYFQS | area with substrate ENHYFQS | area with substrate ENIYFQS | area with substrate ENKYFQS | area with substrate ENMYFQS | area with substrate ENNYFQS | area with substrate ENPYFQS | area with substrate ENQYFQS | area with substrate ENRYFQS | area with substrate ENSYFQS | area with substrate ENTYFQS | area with substrate ENVYFQS | area with substrate ENWYFQS | area with substrate ENYYFQS |
| --- | --- | --- | --- | --- | --- | --- | --- | --- | --- | --- | --- | --- | --- | --- | --- | --- | --- | --- | --- |
| H21E | 0.056 | 0.0807 | 0.0577 | 0.0628 | 0.0683 | 0.0549 | 0.0614 | 0.0493 | 0.0618 | 0.0772 | 0.0474 | 0.0686 | 0.0629 | 0.0565 | 0.0624 | 0.0589 | 0.068 | 0.0465 | 0.0665 |
| H21F | 0.0575 | 0.0672 | 0.0528 | 0.0684 | 0.0664 | 0.0627 | 0.0638 | 0.0994 |  | 0.0662 | 0.0536 |  | 0.0593 | 0.0705 | 0.0263 | 0.0516 |  |  |  |
| H21I | 0.0473 | 0.0623 | 0.0645 | 0.0641 | 0.0602 | 0.0627 | 0.0581 | 0.0771 | 0.053 | 0.071 | 0.0577 | 0.0544 | 0.0584 | 0.0607 | 0.0698 |  | 0.0652 |  | 0.0524 |
| H21T | 0.0613 | 0.068 | 0.0683 | 0.0536 | 0.0733 | 0.0665 | 0.0777 |  | 0.0545 | 0.0783 | 0.0464 | 0.0773 | 0.0608 | 0.0575 | 0.0589 | 0.0663 | 0.0627 |  | 0.0672 |
| T23G | 0.0367 | 0.05 | 0.0594 | 0.0575 | 0.0533 | 0.0705 | 0.0602 | 0.0835 |  |  | 0.0663 | 0.0477 | 0.0557 | 0.0632 | 0.0557 | 0.0556 | 0.0775 | 0.0511 |  |
| T23W | 0.0599 | 0.06 | 0.0586 | 0.0654 | 0.0628 | 0.0644 | 0.0566 | 0.0448 | 0.063 | 0.0783 | 0.0655 | 0.059 | 0.0489 | 0.0636 | 0.0672 | 0.0569 | 0.0729 | 0.0529 | 0.0616 |
| N24A | 0.0814 | 0.0599 | 0.0593 | 0.0609 | 0.0519 | 0.0532 | 0.059 |  | 0.0656 | 0.0736 | 0.0592 | 0.0636 | 0.0594 | 0.0552 | 0.0644 | 0.0485 | 0.0681 |  |  |
| N24F | 0.0649 | 0.0636 | 0.0632 | 0.0617 | 0.0728 | 0.0493 | 0.0586 |  |  |  |  |  | 0.0681 |  | 0.0633 | 0.0317 |  | 0.0642 |  |
| N24G | 0.0638 | 0.0596 | 0.0625 | 0.0661 | 0.0542 | 0.0628 | 0.0648 | 0.114 | 0.0649 |  | 0.0625 | 0.0643 | 0.0586 | 0.0569 | 0.0591 | 0.0609 | 0.0543 | 0.0513 | 0.0643 |
| N24P | 0.0406 | 0.055 | 0.06 | 0.0572 | 0.0466 | 0.0677 | 0.0545 | 0.0532 | 0.0709 | 0.0493 | 0.0588 | 0.0528 | 0.0534 | 0.05 | 0.0592 | 0.066 | 0.0533 |  | 0.0517 |
| N24S | 0.0512 |  | 0.0556 | 0.0621 |  | 0.0495 | 0.0904 |  | 0.054 | 0.0783 | 0.0688 | 0.0301 | 0.074 |  | 0.0966 | 0.0612 | 0.0677 | 0.0636 | 0.0481 |
| N24V | 0.0654 | 0.0653 | 0.0537 | 0.0619 | 0.0573 | 0.0629 | 0.0661 |  | 0.0677 | 0.068 | 0.0601 | 0.057 | 0.0603 | 0.0596 | 0.0647 | 0.0637 | 0.0683 |  |  |
| E25C | 0.0499 | 0.0695 | 0.055 | 0.057 | 0.0618 | 0.055 | 0.0441 | 0.141 |  | 0.0745 | 0.0556 | 0.0485 | 0.05 | 0.0718 | 0.0582 | 0.0647 | 0.0798 | 0.0052 | 0.0601 |
| E25I | 0.0631 | 0.0609 | 0.0577 |  | 0.0566 | 0.0883 | 0.0529 | 0.0822 |  |  | 0.0613 |  | 0.0545 | 0.0585 | 0.0585 | 0.0153 | 0.0763 | 0.0562 |  |
| H29F | 0.0885 |  |  |  |  | 0.0605 |  |  |  | 0.0822 |  |  | 0.0674 |  |  | 0.074 | 0.0842 |  |  |
| T31Q | 0.0581 | 0.0724 | 0.0852 |  | 0.0657 | 0.0566 | 0.067 |  |  | 0.0555 |  |  | 0.0808 |  | 0.0652 | 0.0624 | 0.0679 | 0.0563 |  |
| S32C | 0.0659 | 0.0657 | 0.0532 | 0.0567 | 0.0738 | 0.0639 | 0.0505 | 0.0816 | 0.0478 | 0.0644 | 0.0511 |  | 0.0622 | 0.0463 | 0.0582 | 0.0638 | 0.0815 |  | 0.0511 |
| S32F | 0.0575 |  | 0.0531 | 0.0636 | 0.0587 | 0.0716 | 0.0597 | 0.101 | 0.067 |  |  | 0.0503 | 0.0551 | 0.0396 | 0.0617 | 0.0557 | 0.0708 | 0.0587 |  |
| S32K | 0.0364 |  | 0.0648 | 0.0461 | 0.0482 |  |  |  |  | 0.0841 | 0.0571 |  | 0.0639 |  | 0.0629 | 0.0626 | 0.063 | 0.0486 | 0.04 |
| S32T | 0.0615 | 0.0615 | 0.0645 | 0.067 | 0.0779 |  |  | 0.115 |  | 0.0797 | 0.0539 | 0.0699 | 0.0408 |  | 0.0729 | 0.0578 | 0.0957 | 0.0655 | 0.054 |
| S32V | 0.0616 | 0.0619 | 0.068 | 0.0563 | 0.0605 | 0.0675 | 0.0604 | 0.0862 | 0.0593 | 0.0724 | 0.058 |  | 0.0713 | 0.0527 | 0.0659 | 0.0683 | 0.0687 | 0.0072 | 0.0644 |
| L33K | 0.0621 | 0.0518 | 0.0501 | 0.0625 | 0.0627 |  |  |  |  |  |  |  | 0.0483 |  | 0.0595 | 0.0564 |  |  | 0.0597 |
| L33S | 0.0495 | 0.0782 | 0.0584 | 0.0563 | 0.0483 | 0.0498 |  | 0.0809 | 0.0533 | 0.0643 | 0.0579 | 0.0616 | 0.0596 | 0.0561 | 0.0538 | 0.0576 | 0.0652 |  |  |
| Y34L | 0.0698 | 0.0732 | 0.0444 |  |  |  | 0.0481 | 0.0962 |  |  | 0.0536 | 0.0623 |  |  |  | 0.0519 |  |  |  |
